Data as given in paper PMC4336329 (PLoS ONE, 2015).
The whole screen tested about 310,000 compounds, of which about 2,200 (0.71%) showed an effect of 50% or more. The effect is printed as a negative number. The list shows a part of the results.

Molecular target: human ether-à-go-go-related gene (hERG) potassium channel (human, UniProt Q12809)
Test: primary screen, population patch clamp on CHO cells stably expressing hERG

human ether-à-go-go-related gene (hERG) potassium channel, sequence (Q12809 whole entry, looked up): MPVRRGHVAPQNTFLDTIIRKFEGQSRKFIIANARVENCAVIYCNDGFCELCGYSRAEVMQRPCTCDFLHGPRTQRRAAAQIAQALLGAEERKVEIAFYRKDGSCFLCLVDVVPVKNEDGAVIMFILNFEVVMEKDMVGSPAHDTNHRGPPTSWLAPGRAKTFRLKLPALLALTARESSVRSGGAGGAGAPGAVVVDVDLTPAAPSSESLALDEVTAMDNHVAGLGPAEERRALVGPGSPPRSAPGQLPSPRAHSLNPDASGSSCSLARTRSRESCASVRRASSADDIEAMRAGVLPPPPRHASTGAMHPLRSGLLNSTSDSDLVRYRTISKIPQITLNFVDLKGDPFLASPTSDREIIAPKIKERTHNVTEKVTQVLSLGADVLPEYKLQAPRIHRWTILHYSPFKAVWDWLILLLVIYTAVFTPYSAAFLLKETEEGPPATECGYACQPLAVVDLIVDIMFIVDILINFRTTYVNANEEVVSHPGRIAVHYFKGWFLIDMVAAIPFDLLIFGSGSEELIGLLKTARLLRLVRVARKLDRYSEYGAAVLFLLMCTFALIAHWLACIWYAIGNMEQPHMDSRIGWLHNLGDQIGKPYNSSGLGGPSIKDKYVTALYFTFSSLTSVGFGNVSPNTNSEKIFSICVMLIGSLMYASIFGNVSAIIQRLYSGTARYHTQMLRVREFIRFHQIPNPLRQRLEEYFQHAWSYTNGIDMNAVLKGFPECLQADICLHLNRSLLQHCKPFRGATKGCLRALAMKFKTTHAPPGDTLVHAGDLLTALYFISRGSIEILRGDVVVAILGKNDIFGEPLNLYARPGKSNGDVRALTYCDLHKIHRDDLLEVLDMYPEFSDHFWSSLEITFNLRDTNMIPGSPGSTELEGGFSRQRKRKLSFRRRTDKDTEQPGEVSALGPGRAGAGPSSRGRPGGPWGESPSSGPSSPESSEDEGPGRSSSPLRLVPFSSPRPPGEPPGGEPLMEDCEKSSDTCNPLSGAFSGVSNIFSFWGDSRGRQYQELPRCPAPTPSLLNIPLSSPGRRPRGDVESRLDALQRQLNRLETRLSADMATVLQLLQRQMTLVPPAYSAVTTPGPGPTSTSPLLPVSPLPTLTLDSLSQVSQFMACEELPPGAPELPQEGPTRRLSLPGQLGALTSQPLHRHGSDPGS

Going from `Cc1cc(C)n(-c2nc(C)nc3sc4c(c23)CCC(C)C4)n1` (stereo not drawn) to `COc1ccc(C(CCN2CCCC(C)C2)c2c(OC)cc(OC)c3c(C)cc(=O)oc23)cc1` (stereo not drawn), the “hERG current change (%, negative = inhibition) at 1uM” value falls from 1.17% to -21.6%.

Going from `C=CCn1c(CSc2nc3ccccc3s2)nnc1SCC(=O)NCc1ccccc1` to `O=C(O)CCc1nc2cc(Cl)ccc2n(Cc2ccccc2)c1=O`, the “hERG current change (%, negative = inhibition) at 1uM” value rises from 7.27% to 15.5%.

Compared with `O=C(O)c1cc(-c2ccc(/C=N/N3C(=O)C4C5C=CC(C6CC56)C4C3=O)o2)ccc1Cl` (stereo not drawn), `COc1ccc(CCN2C(=O)C3C4C=CC(C3C2=O)C2C(=O)N(CCc3ccc(OC)c(OC)c3)C(=O)C42)cc1OC` (stereo not drawn) is lower in “hERG current change (%, negative = inhibition) at 1uM” value: 13.2% for the first, -6.83% for the second.

Compared with `COc1ccc(-c2cc3ccc(OCC(=O)NCC4CCC(C(=O)O)CC4)cc3oc2=O)cc1` (stereo not drawn), `Cc1c(C)c2ccc(OCC(=O)N3CCC(C(=O)O)(c4ccccc4)CC3)c(C)c2oc1=O` is higher in “hERG current change (%, negative = inhibition) at 1uM” value: 5.49% for the first, 11.8% for the second.

Compared with `CCOC(=O)c1sc(NC(=O)COC(=O)Cn2cnc3ccccc32)c(C(=O)OCC)c1C`, `CCC1(CC)NC(=O)N(CC(=O)OCC(=O)Nc2ccc(OC(F)(F)F)cc2)C1=O` is lower in “hERG current change (%, negative = inhibition) at 1uM” value: 10.2% for the first, -1.24% for the second.

First: Cc1nnc(NC(=O)c2cccc(S(=O)(=O)N3CCOCC3)c2)s1
Second: Nc1cccc2c1C(=O)N(C(=O)c1cccc(S(=O)(=O)N3CCCCCC3)c1)C2=O
The “hERG current change (%, negative = inhibition) at 1uM” value of the first is higher: 12.6% for the first, -8.06% for the second.

Compared with `O=C(OCC(=O)N1CCc2ccccc21)c1cccnc1Cl`, `O=C(CN1C(=O)c2ccccc2C1=O)OCC(=O)N1CCc2ccccc2C1` is lower in “hERG current change (%, negative = inhibition) at 1uM” value: 9.81% for the first, 2.71% for the second.

Compared with `COC(=O)c1c(C)oc(C)c1S(=O)(=O)NC(C)(C)C`, `C=CCc1cc(Cl)ccc1OCCOCCNC(C)(C)C.O=C(O)C(=O)O` is lower in “hERG current change (%, negative = inhibition) at 1uM” value: 7.83% for the first, -1.74% for the second.

Compared with `COc1ccc(C(C)=O)cc1COc1ccc(Cl)cc1Cl`, `CSc1ccccc1OCc1cc(C(=O)N2CCc3c(Cl)cccc3C2)no1` is lower in “hERG current change (%, negative = inhibition) at 1uM” value: 7.9% for the first, 7.75% for the second.

First: C=CCn1cc(C(=O)N2CCN(C)CC2)c(=O)c2cc(S(=O)(=O)N3CCCC3)ccc21
Second: CN1CCN(c2ccc(C(F)(F)F)cc2NC(=O)Nc2ccccc2)CC1
The “hERG current change (%, negative = inhibition) at 1uM” value of the first is lower: 8.25% for the first, 10.8% for the second.

Going from `c1cnc2nc(CSc3ncn[nH]3)cn2c1` to `Brc1cccc(CN2CCN(c3ncccn3)CC2)c1`, the “hERG current change (%, negative = inhibition) at 1uM” value rises from 2.33% to 14.6%.

Compared with `Nc1ccc2c(c1)ncn2CCCn1cnc2cc(N)ccc21`, `Cc1ccc(-c2nnc3sc(CCc4ccccc4)nn23)cc1` is higher in “hERG current change (%, negative = inhibition) at 1uM” value: 7.62% for the first, 11.1% for the second.

Compared with `O=C(NCC(c1ccco1)N1CCc2ccccc2C1)C(=O)Nc1ccccc1F` (stereo not drawn), `O=C(Cc1ccccc1F)Nc1ccc2c(c1)CCC2` is higher in “hERG current change (%, negative = inhibition) at 1uM” value: 4.26% for the first, 16% for the second.

Going from `CCCCN(C)S(=O)(=O)c1cc(Br)cc2c1N(C(=O)C1CC1)CC2` to `COc1ccc(OC)c2sc(NC(=O)C3CC3)nc12`, the “hERG current change (%, negative = inhibition) at 1uM” value rises from 1.09% to 2.09%.

Compared with `CCc1nnc(NS(=O)(=O)c2ccc(NC(=O)c3cccc4ccccc34)cc2)s1`, `COc1cccc(NC(=O)CN(C)C(=O)c2ccc(NS(=O)(=O)c3ccc(F)cc3)cc2)c1` is higher in “hERG current change (%, negative = inhibition) at 1uM” value: 9.41% for the first, 10.7% for the second.

First: Cc1cnc(C(=O)OCc2csc(CC(=O)Nc3ccccc3C)n2)cn1
Second: O=C(O)COc1ccccc1/C=C1\SC(=S)N(c2cccnc2)C1=O
The “hERG current change (%, negative = inhibition) at 1uM” value of the first is higher: 8.06% for the first, 2.48% for the second.

First: CCc1ccc(/C=N/NC(=O)c2c[nH]c3ccccc23)s1
Second: CCc1ccc(C2=NNC(=Nc3c(C)n(C)n(-c4ccccc4)c3=O)SC2)cc1
The “hERG current change (%, negative = inhibition) at 1uM” value of the first is lower: -0.276% for the first, 28.1% for the second.

Going from `O=C1NC(=O)[C@]2(Cc3ccccc3N3CCN(c4ccccc4)CC32)C(=O)N1Cc1ccccc1` (stereo partly drawn) to `O=C1CC(c2ccccc2)CN1C(=O)c1cccc([N+](=O)[O-])c1` (stereo not drawn), the “hERG current change (%, negative = inhibition) at 1uM” value falls from 3.67% to 0.412%.

Compared with `Cc1c(/C=C/C(=O)c2cccs2)cnn1C`, `Cc1cc(C)c(O)c(C2(O)C(=O)c3ccccc3C2=O)c1` is higher in “hERG current change (%, negative = inhibition) at 1uM” value: 11.5% for the first, 13.5% for the second.

Going from `O=C(CN1CCOCC1)Nc1ccc(NC(=O)c2ccccc2F)cc1` to `Cc1c(Cl)cccc1NC(=S)NCC1COc2ccccc2O1` (stereo not drawn), the “hERG current change (%, negative = inhibition) at 1uM” value rises from 12% to 13.1%.

First: COc1cccc(CNCc2cc(OC)cc(OC)c2)c1.O=C(O)C(=O)O
Second: COc1ccc(CC2C(=O)N(C)C(=O)N(C)C2=O)c(OC)c1
The “hERG current change (%, negative = inhibition) at 1uM” value of the first is lower: 0.211% for the first, 13.8% for the second.

First: O=S(=O)(c1ccc(F)cc1)c1nc(-c2ccco2)oc1Nc1ccc(F)cc1
Second: C=CCNc1nc2c(c(=O)[nH]c(=O)n2C)n1CCOc1ccccc1
The “hERG current change (%, negative = inhibition) at 1uM” value of the first is lower: -1.69% for the first, 9.4% for the second.

In the case of `CCc1nc(NCCC(C)C)c(C#N)c2c1CCCC2`, the “hERG current change (%, negative = inhibition) at 1uM” value is reported as 22.5%.
